# From paper PMC4336329 (PLoS ONE, 2015)
# In all, about 310,000 compounds went through this assay and about 2,200 (0.71%) showed an effect of 50% or more. The effect is printed as a negative number. The list shows a part of the results.
# Target: human ether-à-go-go-related gene (hERG) potassium channel (human, UniProt Q12809)
# Assay: primary screen, population patch clamp on CHO cells stably expressing hERG
# Chain of human ether-à-go-go-related gene (hERG) potassium channel (Q12809 whole entry, looked up): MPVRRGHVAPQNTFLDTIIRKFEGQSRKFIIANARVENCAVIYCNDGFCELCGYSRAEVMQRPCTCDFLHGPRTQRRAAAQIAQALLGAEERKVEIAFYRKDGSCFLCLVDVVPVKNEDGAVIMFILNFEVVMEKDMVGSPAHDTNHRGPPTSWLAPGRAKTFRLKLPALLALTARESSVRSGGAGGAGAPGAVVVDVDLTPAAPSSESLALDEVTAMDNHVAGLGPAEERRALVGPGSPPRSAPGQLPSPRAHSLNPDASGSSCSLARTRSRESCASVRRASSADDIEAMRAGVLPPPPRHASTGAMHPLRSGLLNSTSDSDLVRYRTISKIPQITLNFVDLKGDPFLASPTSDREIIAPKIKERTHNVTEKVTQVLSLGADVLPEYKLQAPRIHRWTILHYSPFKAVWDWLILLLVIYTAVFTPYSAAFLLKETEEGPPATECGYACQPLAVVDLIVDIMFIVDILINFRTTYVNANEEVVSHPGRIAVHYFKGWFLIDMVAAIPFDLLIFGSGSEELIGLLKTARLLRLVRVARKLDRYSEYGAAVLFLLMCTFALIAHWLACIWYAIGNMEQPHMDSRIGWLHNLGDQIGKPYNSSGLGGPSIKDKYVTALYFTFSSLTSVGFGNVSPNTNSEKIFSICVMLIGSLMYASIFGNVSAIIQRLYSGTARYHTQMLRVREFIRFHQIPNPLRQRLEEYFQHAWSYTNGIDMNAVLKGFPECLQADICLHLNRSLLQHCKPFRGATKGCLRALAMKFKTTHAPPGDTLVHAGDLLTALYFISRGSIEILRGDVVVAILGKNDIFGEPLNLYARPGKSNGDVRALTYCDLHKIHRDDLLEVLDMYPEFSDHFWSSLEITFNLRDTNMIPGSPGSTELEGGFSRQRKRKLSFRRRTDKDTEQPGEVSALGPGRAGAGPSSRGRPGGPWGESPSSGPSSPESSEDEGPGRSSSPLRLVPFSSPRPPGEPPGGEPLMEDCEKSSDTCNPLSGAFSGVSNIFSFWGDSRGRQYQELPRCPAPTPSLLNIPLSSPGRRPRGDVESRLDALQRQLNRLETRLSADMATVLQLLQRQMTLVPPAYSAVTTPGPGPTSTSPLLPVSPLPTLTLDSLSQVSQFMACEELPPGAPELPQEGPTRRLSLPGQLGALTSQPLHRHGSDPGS
row,Compound,"hERG current change (%, negative = inhibition) at 1uM [%]"
1,Cc1c(C(=O)OC2CCCC2)[nH]c2c1C(=O)CC(c1ccco1)C2 (centres unmarked),9.19
2,CCc1cccc2c(C(=O)COC(=O)c3nccnc3N)c[nH]c12,10.6
3,O=C(NCCO)c1cc2cc(Cl)cc(Cl)c2oc1=O,7.81
4,C/C(=N\NC(=O)c1nn(C)cc1Br)c1cccc(NC(=O)c2ccncc2)c1,2.06
5,CCCSc1nnc(Sc2nnnn2-c2ccccc2)s1,8.69
6,CCCOC(=O)Nc1ccc(C(N)=O)cc1,6.35
7,CC(C)(Oc1ccc(Cl)cc1)C(=O)NCc1ccco1,7.06
8,COc1cc(NC(=O)c2cc(-c3cccnc3)nc3ccc(C)cc23)c(OC)cc1Cl,4.34
9,CCC(C)NC(=O)C1CCN(C(=O)N(C)C)CC1 (centres unmarked),10.2
10,O=C(c1ccco1)N1CCN(C(=O)c2ccc(CS(=O)c3ccc(F)cc3)o2)CC1 (centres unmarked),27.6
11,Cc1nc(S(=O)(=O)NC2CCCCC2)c(C#N)c(C)c1Cl,8.4
12,COC(=O)CCCC(=O)N1CCCC(C(=O)c2ccccc2SC)C1 (centres unmarked),9.77
13,Cc1ccc(NC(=O)CN(C)CC(=O)Nc2ccc(N3CCOCC3)cc2)c(C)c1,-7.52
14,COC(=O)Cc1[nH]n(-c2nc3ccccc3s2)c(=O)c1C(C)=O,18
15,CC1CN(C(=S)NC(=O)c2ccco2)CC(C)O1 (centres unmarked),14.1
16,CC(=O)SC(C)CC(=O)Nc1ccccc1 (centres unmarked),9.16
17,COc1ccc(N2CCN(C(CNC(=O)C(=O)NCCCn3ccnc3)c3cccnc3)CC2)cc1 (centres unmarked),-8.9
18,CCOC(=O)C1(CCOc2ccccc2)CCN(C(=O)c2cncs2)CC1,-27.4
19,Cc1nc(SCC(=O)Nc2ccccc2C(F)(F)F)c2c(=O)n(C)c(=O)n(C)c2n1,2.91
20,Cc1cc(C(=O)CSc2n[nH]c(N)n2)c(C)n1-c1ccccc1,-6.71
21,Clc1ccc2nc(N3CCCCC3)[nH]c2c1,-8.79
22,CC(C)OC(=O)c1c2nc3ccccc3nc2n2c1[nH]c(=O)c1ccccc12,3.77
23,O=c1cc(Nc2ccc3c(c2)OCCO3)[nH]c(=O)n1-c1ccc(Cl)cc1,2.19

row,Compound,"hERG current change (%, negative = inhibition) at 1uM [%]"
1,O=C(c1ccc(F)cc1)C1CCN(Cc2ccc(F)cc2)CC1,2.51
2,CC(C)N1CCC(N2CCN(C/C=C/c3ccc(F)cc3)CC2CCO)CC1 (centres unmarked),9.87
3,CCOc1ccc(NC(=O)CSc2nc3ccccc3nc2N2CCCC2)cc1,-19.7
4,Cc1ccc(-c2nnc(N(C)C(=O)c3cccnc3)s2)cc1,2.19
5,CC(c1ccccc1)N1CCn2c(nc3cc(NC(=O)NC4CCCCC4)ccc32)C1 (centres unmarked),2.78
6,COc1ccc(NC(=O)CC2Sc3ncnn3C2=O)cc1 (centres unmarked),15.5
7,COc1ccc(N2CCN(C(=O)COC(=O)/C=C/c3ccc(C(F)(F)F)cc3)CC2)cc1,2.77
8,C/C(=N\NC(=O)c1cc(-c2ccco2)nc2ccccc12)c1cccnc1,6.05
9,c1cc(OCCCN2CCCCC2)ccc1CN1CCCCC1,15
10,CC(=O)c1c(C)[nH]c(C(=O)OCc2nc3ccsc3c(=O)[nH]2)c1C,7.68
11,CC1CCCN(S(=O)(=O)c2ccc(C(=O)Nc3nnc(-c4ccco4)o3)cc2)C1 (centres unmarked),-1.68
12,O=c1c2oc3ccccc3c2ncn1Cc1ccc(F)cc1,8.79
13,Cc1c(Cc2ccccc2)c(=O)oc2cc(OCc3nn[nH]n3)ccc12,-2.28
14,O=C(O)C(Cc1c[nH]c2ccccc12)N1CCS(=O)(=O)CC1 (centres unmarked),13.1
15,COc1ccc(C(=O)NNC(=O)CSc2nnc(-c3ccc(O)cc3)n2C)cc1,-2.9
16,COc1ccc(CCNC(=O)c2cc(-c3ccco3)nc3ccccc23)cc1,13.7
17,Cn1c(=O)n(C)c2cc(S(=O)(=O)NCc3ccco3)ccc21,9.92
18,O.c1ccc(-c2cc(-c3nc4ccccc4[nH]3)c3ccccc3n2)cc1,10.5
19,O=C(Nc1ccc(F)cc1)c1ccc(CSc2ccc(Cl)cc2)o1,14.4
20,O=C(Nc1ccccc1)/C(=C/c1ccc(O)cc1)NC(=O)c1ccco1,9.16
21,Cc1ccc(NC(=O)CSc2nnc(-c3ccccc3Br)o2)cc1C,-8.36
22,O=C(Nc1ccccc1)c1cc(S(=O)(=O)N2CCCCC2)ccc1N1CCOCC1,12.6
23,c1ccc(CN2CCN(Cc3ccc4c(c3)OCCO4)CC2)cc1,3.09

row,Compound,"hERG current change (%, negative = inhibition) at 1uM [%]"
1,CCN(c1ccc(OCC(=O)OCC(=O)c2c(N)n(C)c(=O)n(C)c2=O)cc1)S(=O)(=O)c1ccccc1,13.3
2,CC(O)c1nc2ccccc2n1CCCc1ccccc1 (centres unmarked),5.62
3,COc1ccccc1NC(=S)N(Cc1ccco1)Cc1cc2cc(C)cc(C)c2[nH]c1=O,2.7
4,COC(=O)C1C(c2ccccc2)C=CC(c2ccccc2)C1C(=O)O (centres unmarked),9.5
5,CN(C)S(=O)(=O)N1CCC(C(=O)O)(c2ccccc2)CC1,19.8
6,O=C(Cn1cncn1)NCc1cccc2ccccc12,5.67
7,c1ccc2cc(CCCc3cc4ccccc4cn3)ncc2c1,4.58
8,CCN(CC)C(=O)/C(=C/c1ccc2c(c1)OCO2)NC(=O)c1ccc(Br)cc1,-18.9
9,Cc1c(Cl)cccc1NC(=S)N(CCCN1CCOCC1)Cc1cccs1,4.82
10,CCOC(=O)c1c(N)n(-c2ccc(N)cc2)c2nc3ccccc3nc12,-6.28
11,CCCCCOC(=O)C1=C(C)NC(=O)NC1c1ccc(OC)cc1 (centres unmarked),9.02
12,O=C(O)C(=O)O.c1ccc(COc2ccc(OCCN3CCCCC3)cc2)cc1,-27.7
13,O=C(CCS(=O)(=O)c1ccccc1)Nc1cccc(-c2nc3ccccc3s2)c1,7.34
14,COc1ccc(/C=C2\SC(=O)N(CCNC(=O)Cn3cnnn3)C2=O)cc1,6.04
15,COc1ccc(Cc2noc(CN(C)CCN3CCc4ccccc4C3)n2)cc1OC,8.8
16,CN(C(=O)c1cc(COc2ccc(F)c(F)c2)on1)C1CCOC1 (centres unmarked),7.42
17,[O-]c1n[n+](-c2ccc(Cl)cc2Cl)cc2ccccc12,5.72
18,CSc1nc(-c2ccco2)nn1S(C)(=O)=O,16
19,CCOc1cc(S(=O)(=O)N(CC)CC)ccc1Cl,8.96
20,O=c1[nH]c(CSc2nc(-c3ccc(F)cc3)cs2)nc2ccccc12,5.61
21,O=C(CN1CCCC1)Nc1ccc(F)c(Cl)c1.O=C(O)C(=O)O,13.8
22,c1ccc(CSCc2cn3ccsc3n2)cc1,0.534
23,COc1ccc(OC)c(S(=O)(=O)Oc2ccc(N)c3ccccc23)c1,14.6

row,Compound,"hERG current change (%, negative = inhibition) at 1uM [%]"
1,COc1ccccc1NS(=O)(=O)c1cc(NC(=O)Nc2ccccc2)ccc1N1CCCCC1,1.32
2,CS(=O)(=O)N1CCN(c2ccccc2NC(=O)c2ccc(-c3ccc(Cl)cc3Cl)o2)CC1,11.4
3,CC(=O)Nc1ccc(N2CCOCC2)c(C(=O)Nc2cccc(C)c2)c1,-6.81
4,Cc1c(C(C)(C)C)sc(=NC(=O)c2ccccc2O)n1C,15.1
5,COc1ccc(-c2nnc(NC(=O)CS(=O)(=O)c3ccc(Cl)cc3)o2)c(OC)c1,21.4
6,O=C1[C@H]2[C@@H](c3ccc(F)cc3)N3C(=O)N(c4cccc(F)c4)C(=O)[C@@]3(Cc3ccc(Cl)cc3)[C@H]2C(=O)N1C1CCCCC1,11.3
7,CCOC(=O)CSc1nc(C)c(C(C)=O)cc1C(N)=O,16.8
8,CCCC(C(=O)NCCc1ccc(S(N)(=O)=O)cc1)c1ccccc1 (centres unmarked),16.4
9,Cc1cc(OCC(C)C)ccc1/C(O)=C1/C(=O)C(=O)N(Cc2cccnc2)C1c1ccncc1 (centres unmarked),8.11
10,COC(=O)CCC(=O)Nc1cccc2c(NC(=O)CCC(=O)OC)cccc12,24.1
11,Cc1ccc(C(=O)NC2CCCCC2)cc1,12.3
12,CC1=NN(c2ccccc2)C(=O)C1C(=O)c1ccccc1 (centres unmarked),0.341
13,Cc1cc(C)c2c(N)c(C(=O)N3CCN(c4ncccn4)CC3)sc2n1,7.54
14,CCOc1ccc(NC(=O)CN2CCN(CC(=O)c3ccc(OC)c(OC)c3)CC2)cc1,-56.3
15,Cc1nc(Cl)sc1C(=O)Nc1ccccc1,14.7
16,COc1ccc(/C=N/Nc2nc(C)cc(=O)[nH]2)cc1OC,15
17,CCn1c(CC(=O)Nc2ccccc2)nnc1SCC(=O)Nc1nncs1,16.4
18,O=C(c1ccc(-n2cccc2)cc1)N1CCCCC1,8.08
19,CSc1nnc(NC(=O)c2nc(S(=O)(=O)Cc3cccc(C)c3)ncc2Cl)s1,1.83
20,O=C(CSc1ccc(-c2ccccn2)nn1)NCc1ccccc1,12.1
